Laboratory results published in publication PMC4336329 (PLoS ONE, 2015).
The whole screen tested about 310,000 compounds, of which about 14,000 (4.5%) showed an effect of 50% or more. Effects have a minus sign here. The list shows a part of the results.

What follows are compounds tested against human ether-à-go-go-related gene (hERG) potassium channel (human, UniProt Q12809) (assay: primary screen, population patch clamp on CHO cells stably expressing hERG).
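Further: peak tail current of the secondary pulse compared with the same well before compound.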

Sequence of human ether-à-go-go-related gene (hERG) potassium channel (Q12809 whole entry, looked up): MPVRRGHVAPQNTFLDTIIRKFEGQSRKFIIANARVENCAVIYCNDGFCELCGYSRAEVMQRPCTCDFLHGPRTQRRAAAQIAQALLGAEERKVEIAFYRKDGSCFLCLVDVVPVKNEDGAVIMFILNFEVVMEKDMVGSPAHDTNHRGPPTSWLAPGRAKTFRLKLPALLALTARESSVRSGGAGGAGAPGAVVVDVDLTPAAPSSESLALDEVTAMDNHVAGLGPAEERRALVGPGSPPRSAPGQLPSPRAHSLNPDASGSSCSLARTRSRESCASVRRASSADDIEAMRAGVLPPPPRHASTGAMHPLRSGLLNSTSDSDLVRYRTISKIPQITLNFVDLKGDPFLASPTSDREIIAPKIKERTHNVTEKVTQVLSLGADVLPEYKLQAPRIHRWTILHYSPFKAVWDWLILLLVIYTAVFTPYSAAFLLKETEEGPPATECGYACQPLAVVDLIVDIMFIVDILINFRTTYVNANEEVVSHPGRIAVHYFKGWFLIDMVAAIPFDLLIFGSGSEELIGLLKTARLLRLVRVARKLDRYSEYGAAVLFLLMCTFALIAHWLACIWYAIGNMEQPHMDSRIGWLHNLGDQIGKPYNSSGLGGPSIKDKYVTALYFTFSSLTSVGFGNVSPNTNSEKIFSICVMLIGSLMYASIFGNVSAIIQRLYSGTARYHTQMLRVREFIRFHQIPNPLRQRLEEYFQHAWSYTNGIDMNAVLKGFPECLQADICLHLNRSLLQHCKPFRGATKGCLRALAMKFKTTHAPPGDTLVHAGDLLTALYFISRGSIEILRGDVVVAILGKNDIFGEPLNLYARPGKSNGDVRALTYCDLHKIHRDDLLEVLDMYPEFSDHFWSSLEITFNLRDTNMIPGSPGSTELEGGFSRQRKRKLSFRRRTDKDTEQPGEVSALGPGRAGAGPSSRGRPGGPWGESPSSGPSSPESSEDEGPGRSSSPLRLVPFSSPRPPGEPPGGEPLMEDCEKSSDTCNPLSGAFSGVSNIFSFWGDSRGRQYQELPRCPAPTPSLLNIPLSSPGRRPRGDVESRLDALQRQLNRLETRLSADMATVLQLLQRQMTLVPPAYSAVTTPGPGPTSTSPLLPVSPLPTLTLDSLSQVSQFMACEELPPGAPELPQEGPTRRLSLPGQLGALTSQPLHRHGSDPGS

SMILES	hERG current change (%, negative = inhibition) at 10uM
O=C(O)C(Oc1ccc2cc(-c3ccc(Cl)cc3)c(=O)oc2c1)c1ccccc1 (stereo not shown)	26.4%
Cn1ncc(Cl)c1C(=O)Nc1nc2ccc(Cl)cc2s1	-0.803%
COc1cc(C(=O)OCC(=O)c2cc(C)n(CC3CCCO3)c2C)cc(OC)c1C (stereo not shown)	-68%
Cc1cc(N(C)C)ccc1N=Nc1ccc2ncccc2c1	9.49%
Cc1ccc(C)c(N2CCN(C(=S)Nc3ccc4nc(N5CCOCC5)cc(C)c4c3)CC2)c1	-38.7%
COCCCn1c(=NC(=O)c2ccccc2)c(C#N)cc2c(=O)n3cccc(C)c3nc21	-71.5%
COC(=O)Nc1ncc(CN2CCC(c3ccccc3)CC2)s1	-29.7%
COCCNC(=S)N1C2CCC1CC(NC(=O)NC13CC4CC(CC(C4)C1)C3)C2 (stereo not shown)	-1.35%
CC(=O)c1ccc(S(=O)(=O)N(CCCO)Cc2cc3cc4c(cc3[nH]c2=O)OCCO4)cc1	13.3%
O=C(NNC(=O)c1sccc1-n1cccc1)Nc1ccc(F)cc1	8.73%
CCCCN(C)CCC(=O)Nc1ccc2c(c1)CCC2.Cl	-7.46%
CCCc1c(O)nc(SCC(=O)NCc2ccco2)[nH]c1=O	27%
CCNC(=S)NNC(=O)Cn1nc(C)cc1C	-0.819%
O=C1CN(c2ccccc2)C(=S)N1c1ccccc1.[Na+]	4.68%
COc1ccc2ccccc2c1C1CC(=O)N2CN(C3CCCCC3)CSC2=C1C#N (stereo not shown)	7.95%
CC(Sc1nnc(-c2ccc(C(C)(C)C)cc2)n1C)C(N)=O (stereo not shown)	-0.259%
Cc1ccccc1C(=O)NC(=S)N(CCO)Cc1ccccc1	11.1%
O=C(/C=C/c1cccs1)N1CCC2(CC1)Oc1ccc(Cl)cc1C(=O)C21CC(c2ccc(Cl)cc2)=NO1 (stereo not shown)	12.2%
NNC(=O)c1cc(C2CC2)nc2ccc(Br)cc12	13.3%
COc1cc(-c2nc3n(n2)C(c2ccncc2)C2=C(CCCC2=O)N3)cc(OC)c1OC (stereo not shown)	45.3%
CCNC(=O)NC(=O)C(C)OC(=O)CNS(=O)(=O)c1c(Cl)cc(Br)cc1Cl (stereo not shown)	6.39%
Cc1ccc(-c2nn(-c3ccc(F)cc3)cc2C(=O)NCC(c2cccs2)N2CCOCC2)cc1 (stereo not shown)	-30.5%

SMILES	hERG current change (%, negative = inhibition) at 10uM
Cc1ccccc1NS(=O)(=O)c1ccc(C(=O)NCCCN2CCCC2=O)cc1	1.22%
c1ccc(-c2cnnc(N3CCCCC3)n2)cc1	-25.4%
COCC(C)NCc1cc(Br)ccc1OC.O=C(O)C(=O)O (stereo not shown)	8.73%
C#Cc1ccc(CN2CCC(C(=O)Nc3ccc(Oc4ccccc4)nc3)CC2)cc1	-72.3%
COC(=O)C1=C(c2ccc(S(C)(=O)=O)cc2)C[C@@H]2CC[C@H]1N2C(=O)NCc1cccc2ccccc12	-61.6%
CCC(C)(C)NC(=O)c1ccc(Br)o1	3.34%
COc1cc(NS(=O)(=O)c2ccc(NC(=S)NC(=O)c3sc4ccccc4c3Cl)cc2)ncn1	16.3%
COc1ccc2no[n+]([O-])c2c1	28.1%
CCOCCCNC(=S)N1CCCN(c2nc3cc(C)cc(C)c3cc2C#N)CC1	-55.6%
O=c1c(Cl)c(NS(=O)(=O)c2ccccc2)cnn1-c1ccccc1	12.2%
COc1ccc(CCN(C)C(=O)c2ccc(S(=O)(=O)NCc3ccco3)cc2)cc1OC	-4.8%
CCc1ccc(C(=O)COC(=O)C(CCSC)NC(=O)c2ccccc2)cc1 (stereo not shown)	5.66%
Cc1[nH]c2ccc(Br)cc2c(=O)c1CN1CCCCCC1	-64.3%
[Cl-].[NH3+]CCCn1c(C(=O)c2ccc(Cl)cc2)c2ccc([N+](=O)[O-])cc2[n+]1[O-]	-63.8%
CC(NCCOc1ccccc1F)C(=O)Nc1ccc(S(N)(=O)=O)cc1 (stereo not shown)	13.4%
CCOc1ccccc1NC(=O)CSc1nnc2ccc(-c3cccnc3)nn12	-25.8%
CN(C)/C=C/c1onc(-c2ccccc2Cl)c1C#N	-32.6%
CNc1ccccc1C(C)(C)c1cc(C)[nH]n1	22.6%
CCOc1ccc(NC(=S)Nc2ccc(Br)cc2Cl)cc1	32.6%
O=C(NC1CCCCCC1)c1c(O)c2ccccc2[nH]c1=O	8.34%
CCN1C(=O)S/C(=C/c2ccc(Oc3ccc([N+](=O)[O-])cn3)c(OC)c2)C1=O	9.24%
CC1(C2CC2)NC(=O)N(CC(=O)Nc2ccc(F)cc2F)C1=O (stereo not shown)	-2.98%

SMILES	hERG current change (%, negative = inhibition) at 10uM
Cc1ccc(Nc2nnc(SC(C)C(=O)NC3CC3)s2)cc1 (stereo not shown)	-14%
COC(/C(=N/O)c1ccc(Cl)cc1)c1ccccc1 (stereo not shown)	3%
Cc1ccc(S(=O)(=O)NNC(=O)c2cccs2)c(C)c1	14.4%
Cc1cc(C)nc(NC(=O)/C=C/c2ccc3c(c2)OCO3)c1	7.47%
S=C(NCc1cccc(Cl)c1)NC1CCCCC1	0.759%
CN1CCN(c2ccccc2NC(=O)COc2ccccc2)CC1	-48.4%
O=C(Nc1nc(-c2cc(Cl)sc2Cl)cs1)c1ccccc1	16.3%
O=c1[nH]c(-c2ccncc2)nc2ccccc12	1.99%
O=C(O)CCn1[nH]c(=O)c2ccccc2c1=O	11.8%
c1ccc(-n2ncc3c(NCc4cccs4)ncnc32)cc1	11.8%
O=C(NCCCN1CCCC1=O)c1ccccc1NS(=O)(=O)c1ccc(Br)cc1	1.59%
Cc1ccccc1CN1CCN(CC2CC3C=CC2C3)CC1 (stereo not shown)	1.36%
O=C1c2ccccc2C(Nc2ccc(S(=O)(=O)N3CCCCC3)cc2)N1Cc1ccco1 (stereo not shown)	-22.7%
C=C1SC(=Nc2ccccc2Cl)N(C(=O)c2sc3ccccc3c2Cl)C1(C)C	-8.75%
COc1ccc(/C=C(\NC(=O)c2ccc(C)cc2)C(=O)N2CCCCC2)cc1	-55.2%
Cc1ccc(N2CCN(c3ncccc3[N+](=O)[O-])CC2)c(C)c1	22.4%
Cc1ccc(S(=O)(=O)N2CCC(C(=O)OCC(=O)NCCc3ccccc3)CC2)cc1C	-8.07%
COc1ccccc1NC(=S)N(CCc1ccc(OC)c(OC)c1)Cc1ccccn1	-49.6%
CCC(=O)N1CCN(c2ccc(NC(=S)NC(=O)C(C)C)cc2)CC1	-2.67%
CCC(C)(C)n1nnnc1C(c1cc2cc(OC)c(OC)cc2[nH]c1=O)N1CCc2ccccc21 (stereo not shown)	-4.37%
O=C(CSc1nnc2sc3ccccc3n12)NCc1ccc2c(c1)OCO2	-24.9%
CCOC(=O)N1CCC(NC(=O)CCc2nc(-c3ccc(C)cc3)no2)CC1	-6.4%

SMILES	hERG current change (%, negative = inhibition) at 10uM
N#Cc1cc2cc3c(cc2nc1SCC(=O)N1CCCC1)OCCO3	3.99%
Cc1ccc(-n2ncc3c(=O)n(CC(N)=O)cnc32)cc1C	22.2%
Cc1ccc(/C(N)=N/OC(=O)c2cccc(F)c2)cc1	1.95%
COc1ccc(C(=O)NNC(=S)NC(=O)c2cccc([N+](=O)[O-])c2)cc1	17.9%
O=C(Cn1c(SCC(=O)N2CCCc3ccccc32)nc2ccccc21)N1CCCC1	-13.2%
COc1cccc(Cn2nnc(C(=O)Nc3cc(Cl)ccc3OC)c2N)c1	13.3%
CCOc1ccc2nc(SCC(=O)NCc3ccco3)sc2c1	-29.8%
COc1ccccc1-c1nc(C(N)=O)c2[nH]c(=O)n(-c3cccc(C)c3)c2n1	-20.9%
COc1ccc(S(=O)(=O)Nc2ccccc2C(=O)NC(C)C)cc1OC	13.3%
CCOc1ccc2c(CC)cc(=O)oc2c1OCC	-18.9%
Cc1cc(C(=O)OCC(=O)c2ccc3c(c2)NC(=O)CO3)c2ccccc2n1	18.8%
O=C(CCC(=O)c1ccc(F)cc1)Nc1ccccc1Cl	1.71%
CN(C)S(=O)(=O)N1CCC(Oc2ccc(C(=O)N3CCCCCCC3)cc2)CC1	10.9%
COc1cc(OC)c(-n2c(C)cc(C=O)c2C)cc1Cl	-15.4%
CC(C)Cn1c2nc3ccccc3nc2c2c(=O)n(CCN3CCOCC3)cnc21	-48.1%
CCCCNC(=O)CSc1nc2ccsc2c(=O)n1CCCC(=O)NCCc1ccc(S(N)(=O)=O)cc1	22.2%
CCOC(=O)N1CCN(C(=O)CN(c2ccc(OC)cc2)S(C)(=O)=O)CC1	-0.984%
O=C(CN1C(=O)c2ccccc2C1=O)NC1CCCCC1	10.5%
COC(=O)c1sccc1NC(=S)N1CCN(c2ccc(F)cc2)CC1	-8.43%
O=C(c1ccc(NS(=O)(=O)c2cccs2)cc1)N1CCOCC1	14.4%
CC1=C(C(=O)NCc2ccccc2)C(c2cccs2)NC(=S)N1 (stereo not shown)	-23.7%
COCCn1c(N)c(C(=O)OCc2ccccc2)c2nc3ccccc3nc21	-38.3%
